Reference: patent US20210179728A1 (OSE IMMUNOTHERAPEUTICS, published 2021)

T1: human SP-D (R et D Systems, reference 1920-SP-050) (human, UniProt P35247 21-375)
T1 construct: also called Surfactant Protein D; SP-D ligand
T1 sequence (looked up): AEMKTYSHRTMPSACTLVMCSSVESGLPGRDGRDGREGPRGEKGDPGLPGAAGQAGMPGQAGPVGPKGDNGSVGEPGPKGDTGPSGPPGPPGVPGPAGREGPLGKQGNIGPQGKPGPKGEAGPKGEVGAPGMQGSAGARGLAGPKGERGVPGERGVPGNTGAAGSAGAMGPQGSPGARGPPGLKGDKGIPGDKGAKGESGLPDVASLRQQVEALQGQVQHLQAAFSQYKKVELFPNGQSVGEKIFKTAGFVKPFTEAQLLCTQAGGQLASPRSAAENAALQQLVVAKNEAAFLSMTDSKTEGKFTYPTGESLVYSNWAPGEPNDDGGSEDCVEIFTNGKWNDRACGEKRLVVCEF

B1: recombinant hSIRPa (Sino Biologicals, reference 11612-H08H) (receptor)
chain: not shown
notes: also called SIRPa-His; human SIRPa-His; not shown: His tag (histidine tail)

What was measured:
[1] = molecular target: T1, human SP-D (R et D Systems, reference …); assay: BLI (Blitz); SIRPa-His on Ni-NTA biosensor, SP-D at 100 ug/ml, no antibody [B, table B]
[2] = molecular target: T1, human SP-D (R et D Systems, reference …); assay: BLI (Blitz); SIRPa-His on Ni-NTA biosensor pre-incubated with mouse 18D5 at 20 ug/ml, then SP-D at 100 ug/ml [B, table B]
Method: FIG. 6. […] SIRPa-His recombinant protein was immobilized onto a NINTA biosensor at 10 μg/ml and the anti-SIRPa antibody was added at 20 μg/ml (saturating concentration).
Analysis of data was made with the Blitz pro 1.2 software, which calculated association constant (ka) and dissociation constant (kd) and determined the affinity constant KD […].

[3] = molecular target: B1; assay: ELISA on immobilized SIRPa-His, peroxidase anti-human IgG, DO 450nm [panel PD1]
Method: Method: For ELISA assay, recombinant hSIRPa (Sino Biologicals, Beijing, China; reference 11612-H08H) was immobilized on plastic at 0.5 μg/ml in carbonate buffer (pH9.2) and different modified anti-SIRPa antibodies were added to measure binding to SIRPa.

Row | Kd [1] | koff [1] | kon [1] | Kd [2] | koff [2] | kon [2] | binding result [3] | Binder
1 | 4.37 µM | 0.0108 s⁻¹ | 2460 M⁻¹ s⁻¹ | 0.735 µM | 0.00241 s⁻¹ | 3270 M⁻¹ s⁻¹ | – | B1
2 | – | – | – | – | – | – | binds | modified anti-SIRPa HEFLB antibody with ECD of PD1 on the light chain (antibody, human IgG4 S228P, kappa, HEFLB with the ECD fused at the C-terminus of the light chain; also called VH+VLprot (PD1); HEF + LB-PD1) heavy: EVQLVQSGAEVKKPGESLRISCKASGYSFTSYWVHWVRQMPGKGLEWMGNIDPSDSDTHYSPSFQGHVTLSVDKSISTAYLQLSSLKASDTAMYYCVRGGTGTLAYFAYWGQGTLVTVSSASTKGPSVFPLAPCSRSTSESTAALGCLVKDYFPEPVTVSWNSGALTSGVHTFPAVLQSSGLYSLSSVVTVPSSSLGTKTYTCNVDHKPSNTKVDKRV[sequence of human IgG4 Fc with S228P L445P (EU numbers) omitted] light: DVVMTQSPLSLPVTLGQPASISCRSSQSLVHSYGNTYLYWFQQRPGQSPRLLIYRVSNRFSGVPDRFSGSGSGTDFTLKISRVEAEDVGVYYCFQGTHVPYTFGGGTKVEIKRTVAAPSVFIFPPSDEQLKSGTASVVCLLNNFYPREAKVQWKVDNALQSGNSQESVTEQDSKDSTYSLSSTLTLSKADYEKHKVYACEVTHQGLSSPVTKSFNRGECGGGGSGGGGSGGGGSPGWF[sequence of about 150 residues omitted]
